Reference: the RNAGym collection of RNA variant scans (doi:10.1073/pnas.2313332121)
Variants at the background level are over-represented here.

B1: TPR 5TU (parent)
chain: GGAUCUUCUCGAUCUAACAAAAAAGACAAAUCUGCCACAAAGCUUGAGAGCAUCUUCGGAUGCAGAGGCGGCAGCCUUCGGUGGCGCGAUAGCGCCAACGUUCUCAACUAUGACACGCAAAACGCGUGCUCCGUUGAAUGGAGUUUAUCAUG

Variants of: B1
Test: polymerase ribozyme fitness, log enrichment relative to wild type (log ratio); higher = more active; in vitro selection for triplet polymerase activity
Summary of the method: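 Mutant libraries of both subunits of a heterodimeric triplet polymerase ribozyme were PCR-built, transcribed, and selected once in triplicate, with frozen incubation at −7 °C and capture of gel-excised extended constructs on streptavidin beads before RT-PCR. Illumina sequencing of input and output libraries was filtered to genotypes with ≥10 input reads and ≥1 read per output. Fitness is the logarithm of genotype enrichment over wild-type enrichment, using inverse-variance-weighted replicate averages. The logarithm is base 2.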

| Variant | polymerase ribozyme fitness (log ratio) |
| --- | --- |
| A39U G50C G83U C87A C95G A107G | ≤ -4.2 |
| A39U U56A C96A A138U | ≤ -4.2 |
| A40U G117U C149G | ≤ -4.2 |
| A39U G42U A73G C87A U135G | ≤ -4.2 |
| A40U G62A C95U U104C G133C | -3.3 |
| A39U G100A A110G A150U | ≤ -4.2 |
| A39U U45G C85A A91C G92C | ≤ -4.2 |
| A40U G65U C75U A97C A119U | ≤ -4.2 |
| A40G U56A | -1.21 |
| A40U A52G C116G A137C | ≤ -4.2 |
| A40U C93G C116U U139A U145A | ≤ -4.2 |
| A40U G50A A97C G112C C123U A137G | ≤ -4.2 |
| A40U C114U | -2.19 |
| A40U U45A G59A G86A C118U | ≤ -4.2 |
| A40U G81C C85U A91C G126A U148A | ≤ -4.2 |
| A40U G42U C69U A89G A91U A106C C149U | ≤ -4.2 |
| A40U G50C G67C C103A C129G U144G | ≤ -4.2 |
| A40C G42A A52C G94C C99U | ≤ -4.2 |
| A40G C87G C103A G117U | ≤ -4.2 |
| A40U A98G | -0.242 |
| A40C A89G A150G | -3.25 |
| A40G A52G A91C A119U G128A | ≤ -4.2 |
| A40C A52C G88U G92A A97G | ≤ -4.2 |
| A40U G50A C96U A107G | ≤ -4.2 |

| Variant | polymerase ribozyme fitness (log ratio) |
| --- | --- |
| A40U C43U U53A U77C G80A G100A A107U | ≤ -4.2 |
| A40G U53G G84A A110G G136U | ≤ -4.2 |
| A40C U77A G94A A97C C99U A113G G117U U139G U144G | ≤ -4.2 |
| A39U U55G G88A U104A U135A U144C C149A | ≤ -4.2 |
| A40U G50C C85G C99U A137U U148G | ≤ -4.2 |
| A40G G117A | -3.18 |
| A40C G71A C76G G83A C85U A107G G126U A138C | ≤ -4.2 |
| A40G G67U C85A A98U U144C U145A | ≤ -4.2 |
| A40U A41C A49G C96A | -1.32 |
| A40U A66G A73U U78G A89C C93U C116U U144C A147G | ≤ -4.2 |
| A40C A73G G92A U111C U134A | ≤ -4.2 |
| A40C U55A U104C | -0.475 |
| A41C A47U G59U U61A G70C G84U C125A | ≤ -4.2 |
| A40G G46A A64U G81A G88C G126A | ≤ -4.2 |
| A40G G143A | -2.88 |
| A40U U56A C87A C93G A113G C116G G136U U146C | ≤ -4.2 |
| A40C U56A A89G | -0.978 |
| A39U U56G C93G U101G | ≤ -4.2 |
| A40C U77G | ≤ -4.2 |
| A40U C79U A121G | -2.75 |
| A41C A60U G67U U135G G140A | ≤ -4.2 |
| A40C A49C C72U G143U U146G | ≤ -4.2 |
| A40C A89U | 0.433 |
| A40C U44G G80A G84A G133C | ≤ -4.2 |

| Variant | polymerase ribozyme fitness (log ratio) |
| --- | --- |
| A41C A47C U56A C85U | -1.41 |
| A40U A49U C87U G141U A142U | ≤ -4.2 |
| A40U C51G C57U G83A G84A G117C U144A U146A | ≤ -4.2 |
| A40U U45A C69U G83U G141A U144A | ≤ -4.2 |
| A39U C69A G74C C76U C87A | ≤ -4.2 |
| A40G G50C C79G G88C | ≤ -4.2 |
| A40C A47C G50A C51U U53A U82C G84A G126A C131U | ≤ -4.2 |
| A40C A73G G81U C95A A106C C125G G141C U146G A150U | ≤ -4.2 |
| A39U U53A C75G G86U U146G | ≤ -4.2 |
| A40U G68C G92C U135C | ≤ -4.2 |
| A41C A52C C114A C116G | ≤ -4.2 |
| A40C A52C G86A A98G | -2.37 |
| A41C A66C A106U G117A A119G | ≤ -4.2 |
| A40C U55G G58A U130A U135C | ≤ -4.2 |
| A40C A49C U56A A60C G84A G136A | ≤ -4.2 |
| A40G A52C G83U A98C | -3.64 |
| A40C C131G | -3.13 |
| A39U G70U C118G C131G | ≤ -4.2 |
| A40G C43U G124A | ≤ -4.2 |
| A40C G46C C57A G74C C103A A107U C118G U134G G140C | ≤ -4.2 |
| A40C C69G G83C C131G | ≤ -4.2 |
| A40U G50U G80A G126A C132G | ≤ -4.2 |
| A40U A49U A60C C63G U78C G86A A97U C149A | ≤ -4.2 |
| A39U C108A A115U U127G U144A | ≤ -4.2 |

| Variant | polymerase ribozyme fitness (log ratio) |
| --- | --- |
| A39U G100C U148A | -4.2 |
| A39U G74A C85U A91C C125A | ≤ -4.2 |
| A41C A49C | -4.01 |
| A40C U55A C85U A97C G100A | ≤ -4.2 |
| A40C A52G C79A C85U C99A A106G A142U G152U | ≤ -4.2 |
| A39U C93G A97G A106G A122G G136C U144G | ≤ -4.2 |
| A40U U61G C69U | -1.67 |
| A39U A91C G141C U148G | ≤ -4.2 |
| A40C U61G C87G C93A | ≤ -4.2 |
| A40G G62C G84A C93G G100U U151G | ≤ -4.2 |
| A40C A52U U55A C93U | -3.92 |
| A40U U61A C85U C99U C108U C114U C118U | ≤ -4.2 |
| A40U A49C | ≤ -4.2 |
| A40G C63G C85U U145A | -2.16 |
| A39U U53A C76G U145A | ≤ -4.2 |
| A40G A64C G70A C114U | ≤ -4.2 |
| A39U G58C G74U A91G C123G G133A U146C | ≤ -4.2 |
| A40G G94C | -1.82 |
| A39U U55G U82C C85U U146C | -2.49 |
| A39U U44G C79U G84C G136U | ≤ -4.2 |
| A40C A113G C116U U134G G141U | ≤ -4.2 |
| A40U C75G C85G U135G G140U | ≤ -4.2 |
| A40C C54U U56A G126U | -0.0276 |
| A40C A41C A52U A91U C95G G117C G128U G141C U146A | ≤ -4.2 |

| Variant | polymerase ribozyme fitness (log ratio) |
| --- | --- |
| A40G G70A U109C A147C | ≤ -4.2 |
| A39U G42A C87A G94A A97U A147G U151A | ≤ -4.2 |
| A39U U78A G83A G84C A115U U134C G136U | ≤ -4.2 |
| A40C C43A G80U C87A | ≤ -4.2 |
| A40C G42U G71C U144C U148C | ≤ -4.2 |
| A40U U56A G74U C118G | ≤ -4.2 |
| A40C A49U G128A G141U | ≤ -4.2 |
| A40C G71C C85G U134G | ≤ -4.2 |
| A40C G42U U56A C57U G70C C87A G117U | ≤ -4.2 |
| A40U U55A U101C A120C | -0.406 |
| A40U U55A G86A G133U | ≤ -4.2 |
| A39U C69U C75U G84U | ≤ -4.2 |
| A40U A41C G68A C105A | ≤ -4.2 |
| A40U C57G C105A | -0.98 |
| A40C A98U A122U | 0.766 |
| A40U C51A C87A A142C | ≤ -4.2 |
| A40U C79G A91G | ≤ -4.2 |
| A40U C87A | -3.87 |
| A40G G83A C116G A138G | ≤ -4.2 |
| A39U U55A C105U C108G C116U A121C | ≤ -4.2 |
| A40G C96U | -1.81 |
| A40G G58A A64G C85A G94A A150C | ≤ -4.2 |
| A40U C63G | 0.0879 |
| A39U U44A C57A A91U G100A U102C | ≤ -4.2 |

| Variant | polymerase ribozyme fitness (log ratio) |
| --- | --- |
| A40C A64G C93U C96A C103G A113U C125G | ≤ -4.2 |
| A40C A47C C93A A137G U146C | -4.13 |
| A39U U53A G74U | ≤ -4.2 |
| A39U G68A A73G C87G C132A G141C U144C | ≤ -4.2 |
| A40C A122G | 0.759 |
| A40C A41U A47C U53C G71C A106U G141A | ≤ -4.2 |
| A40G A52C C87A G126C A137C | ≤ -4.2 |
| A40C U61A U90C A147G | ≤ -4.2 |
| A40C U45A C51U C76U C85A A106G C118U U134G | ≤ -4.2 |
| A39U C75G A91G U109G | ≤ -4.2 |
| A40U C69U G84C G143C | ≤ -4.2 |
| A39U G59C G83U | -2.72 |
| A40U U53G C69A C99G C108G A110U A147C | ≤ -4.2 |
| A40G C85U C118A | -2.77 |
| A39U C87G A91G C108G U151A | ≤ -4.2 |
| A39U C85G U101C U127G | ≤ -4.2 |
| A40G C43G A64C | ≤ -4.2 |
| A40C G50A A60U G88U G92C C95G G100U | ≤ -4.2 |
| A40C G71C C85G U127G C131G U144G | ≤ -4.2 |
| A40G C93A A137U | ≤ -4.2 |
| A40C U56A C57U G140C | -3.75 |
| A40G C57A C72U C87A | ≤ -4.2 |
| A39U A89G C93G C125U U139A | ≤ -4.2 |
| A40U G62A C131G G136A | -3.43 |

| Variant | polymerase ribozyme fitness (log ratio) |
| --- | --- |
| A40G A91C | ≤ -4.2 |
| A40C G48C U56G | -1.94 |
| A41C A49C U144A | ≤ -4.2 |
| A40G G46C A49G C85U A97C C118U U145G | ≤ -4.2 |
| A40C U55A G59A A113U C123A | -0.982 |
| A39U U53C C108G C149U | ≤ -4.2 |
| A40C C57U A60G U61A | -2.29 |
| A40C A64C C85A U102A A106U G126A G133C U134C U148C | ≤ -4.2 |
| A40C G88U C96G C114U | ≤ -4.2 |
| A40U C76A C87G C108G | ≤ -4.2 |
| A41C A52G G62C C95G C131A A142U C149A | ≤ -4.2 |
| A40C A52G G62C A97C U148A | ≤ -4.2 |
| A40C G48C C85G C95G U104G A122C U127G U135G | ≤ -4.2 |
| A40U U45C C57G G81C G100C C116A | ≤ -4.2 |
| A39U A138G | ≤ -4.2 |
| A40U C87U G88U | ≤ -4.2 |
| A40C U82G G94A | 0.746 |
| A40U G46C G68A C87A | ≤ -4.2 |
| A39U G48C G68U A122G G140U U145A A147C | ≤ -4.2 |
| A39U G42C G68C | ≤ -4.2 |
| A41C A49C G50U C51A G92C A106G | ≤ -4.2 |
| A40C A49G C87U C105U A106U U109G U139G | ≤ -4.2 |
| A39U G83A U151G | ≤ -4.2 |
